# Data: the supplement of paper PMC11417369
# ± gives the standard deviation of the averaged measurements. The list shows a part of the results.
# System: PfAP2-LT AP2 domain (GST-tagged)
# Experiment: gcPBM binding intensity (ln(normalized median fluorescence intensity)); higher = stronger DNA binding
# Summary of the method: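 DNA-binding domains from P. falciparum, fused to GST and produced in E. coli, were put on an Agilent 4 × 180k double-stranded probe array for 1 h in 1× PBS holding 1% milk, 0.2 mg/ml BSA, 0.5% salmon testes DNA and 0.03% Triton X-100. Probes were primer-extended, 36 bp long and drawn from intergenic genomic regions, with negative controls included. After Alexa488 anti-GST antibody detection and a 488 nm scan, binding intensity was set as the highest Masliner-normalised natural-log median intensity across replicate spots of either probe orientation.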
row,Sequence,gcPBM binding intensity (ln)
1,AATATAAATACTCCTACACACATATAAATATAAATA [CACACA_site7419],9.07 ± 0.38
2,TCCACATTAATGTAATGTACAAAATTAGAAAATAAA [XGTACX_site6287],8.61 ± 0.45
3,TTTTGATTAAGTGAATTTTTTTATTTATATAAATAT [TGCATGCA_negctrl_site479],8.37 ± 0.41
4,TTACATTGTAAAAAGTGTACATATAATTTAATTAAT [XGTACX_site1834],8.6 ± 0.4
5,GGATTACAAATAGGTTGTACGTTTTTTTTTTTTTCT [XGTACX_site3605],8.72 ± 0.57
6,ATGTAGACTGAAACCACACACACATATATATATATA [CACACA_site606],10.2 ± 0.2
7,AAAAAAAATAATTTGCGTACATAAAAATTTATAGGA [XGTACX_site3016],8.54 ± 0.49
8,TCCGTATATTTATACGCATGCATTATGAACATTGTT [TGCATGCA_site613],8.9 ± 0.33
9,AAATTTTTTTTTGTCATATGATGTTTGAACCCAAAT [CACACA_negctrl_site1659],8.55 ± 0.55
10,AAAAAAAAAAAAAAATGTACCCATAAAATAAGCATT [XGTACX_site8576],8.81 ± 0.47
11,TATATTATATATATATGTACATATGGCAAAACATTA [XGTACX_site7958],8.72 ± 0.47
12,AATCACAACGAACACACACACAAAAAAAAAAAAAAA [CACACA_site6790],9.34 ± 0.63
13,TTTTTTACAATTAACACACTCAAAAATAATATTAAA [CACACA_site5198],8.3 ± 0.43
14,AATTTTTTAAATGTGTGTACATATTATTTAAATAAT [XGTACX_site5967],8.75 ± 0.47
15,AAATACTGATTTGGTTGTACATGTGCACTATATAAC [XGTACX_site3795],9.04 ± 0.42
16,AAAAATTAAATGTACACACACCTTAAACAATGTCAT [CACACA_site6958],9.23 ± 0.33
17,TATAATCTAACATAATGTACATGTATATGCACTTTA [XGTACX_site369],8.75 ± 0.49
18,ATAAATATATTTATATGTACATATAATTTTACATAT [XGTACX_site5440],8.96 ± 0.49
19,ATATATATATCTAATTGTACATATTTTATAAATAAG [XGTACX_site4840],8.45 ± 0.35

row,Sequence,gcPBM binding intensity (ln)
1,AGACAAAATGTTTGAAGTACTTTTTATCAAATTAAA [XGTACX_site8885],8.45 ± 0.54
2,AAAAAAAAAAAACACACACACACACCCATACATACA [CACACA_site707],10.4 ± 0.14
3,ATATATATTTATATTTGTACGAATTAAAATTTTTTA [XGTACX_site5200],8.45 ± 0.42
4,TTATCAATAAAATGCACACACTGTAATATTATTAAA [CACACA_site6055],8.99 ± 0.3
5,ATTTAAAACAAAAGTAGTACGTCTAATAAATTCAAC [XGTACX_site4344],8.74 ± 0.46
6,ATAGCTTTTATTTAAAGTACAAAAAGGATGTTGAAA [XGTACX_site3810],8.46 ± 0.44
7,TTAATTATTATATAAGTGCAATAATAAAAAGTTGTA [GTGCAC_site9552],8.56 ± 0.39
8,TTGTTAATAAATAAATAAATAAATATATTTATATAT [GTGCAC_negctrl_site271],8.26 ± 0.4
9,TGATTTTTTCATATTCTACACACGTGAACAAATGTG [CACACA_site8987],8.94 ± 0.37
10,TTAAGAATATCTTAGAGTACATTTTATCATCTTAAA [XGTACX_site8298],8.16 ± 0.42
11,TCTTTTTAAATTACTATAATACATTCATAAATTATA [GTGCAC_negctrl_site448],8.44 ± 0.46
12,TGTTGATTTCTCAAATGTACTTTACTTTTCTTCAGA [XGTACX_site7916],8.59 ± 0.47
13,AATTTATTTTTTTAATGTACATATGGTATAAATATA [XGTACX_site8012],8.53 ± 0.38
14,TTTTTTTTTTTTAATTGTACATTTTATATAAACTTT [XGTACX_site6806],8.63 ± 0.68
15,AATATATATATATGTACACACTCCAATACATATACA [CACACA_site2682],9.01 ± 0.38
16,TATATGTATGTATGTACACACAAAAAATGGAATATA [CACACA_site3717],9.27 ± 0.49
17,AGGGAATAAGTAAGGTGTACATAATTATGTTACTTT [XGTACX_site6152],8.95 ± 0.38
18,TTTTTTTATTTTATAAAGCAAAAATAAGAATGAAAT [XGTACX_negctrl_site270],8.12 ± 0.49
19,AAAAATTAAATAAATTTACACACTAATAATTACATA [CACACA_site8260],8.56 ± 0.46

row,Sequence,gcPBM binding intensity (ln)
1,AAATATATTTTACATTGTACATGAATAAACTATAAA [XGTACX_site2080],8.51 ± 0.38
2,AAAAATATGTCCATGAAAAGGATAGGCAGGTAATCA [XGTACX_negctrl_site93],9.03 ± 0.47
3,ACGTTAAAATATTGGGTGCTAACACAATAAAAATAA,8.85 ± 0.58
4,TACAATTTTTTAAATGCACACAAAAGGAATAAATAA [CACACA_site8075],8.81 ± 0.4
5,TAATATATGTATTGCACACCTATAACCATTATTTCT [CACACA_site1498],9.01 ± 0.45
6,AAAAGCAAGTTCCAGGGTACATATATATGAAAAAAC [XGTACX_site2408],9.04 ± 0.45
7,TATATAGGTATCATTACACACATGTATACTTATTTG [CACACA_site7864],9.24 ± 0.33
8,CATATAAATAAATACACACACACACGCCTTATAATT [CACACA_site7830],10.19 ± 0.078
9,TATTTAAGAATATGAAGTACATATATTATTTAAAAA [XGTACX_site7897],8.31 ± 0.49
10,CCTAAAAAAAAGAAATGATATACATATGTATATATA [GTGCAC_negctrl_site100],8.69 ± 0.39
11,TTTTTCTTTCTCTATTGTACACATGGAAACACATAA [XGTACX_site4601],8.72 ± 0.4
12,AAATATATAAAATATACACACAGTAATATATATATA [CACACA_site1385],9.11 ± 0.4
13,TCTTGTTTTCAAATATGTACATAGAATAGACATTTT [XGTACX_site684],8.51 ± 0.44
14,ATAAAATGAACAAACACACACACATATATATATATA [CACACA_site2402],10.2 ± 0.13
15,TATATATAAATATTCAGTACATAGTATTATTAAGTA [XGTACX_site1980],8.64 ± 0.54
16,AAGTTTTATTTAAATTGTACTAAAATTTTTATATTA [XGTACX_site7065],8.35 ± 0.5
17,TCTCAAGTTGTTAAAAAATAAAAACAATAAATCTAA [CACACA_negctrl_site165],8.38 ± 0.49
18,TACAAAAAAAAAAAATAGATAAAATAATAATCAAAT [TGCATGCA_negctrl_site524],8.57 ± 0.64
